Laboratory results as given in PubChem BioAssay AID1508624 (National Center for Advancing Translational Sciences (NCATS), 2021).
Among all 48,000 compounds or so, about 120 (0.25%) were called active. Roughly 4% stayed inconclusive and do not appear here. The call rests on the fitted dose curve; in most records, active means well fitted activation curve with a large enough effect; inconclusive means small, poorly fitted or top-dose-only effect, or another doubt; inactive means no such curve, though single readings can be large or run the other way. This is one part of the list.

Assay: Primary qHTS for Identification of Small Molecule Activators of Huntingtin-Antisense Promoter Activity; further: nearly all actives have a fitted effect of over 55% in size
Conditions: HEK293 HTT-AS promoter firefly luciferase reporter, 24 h; series mostly up to 57.5 µM; activity change, positive = activation: at the top concentration
How it was run: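 HEK293 Fluc reporter, 2,500 cells/well, 24 h pre-culture; cpds up to 57.5 uM final, 24 h 37 degrees C; Dual-Glo, 10 min RT; normalized vehicle = 0%, zero RLU = -100%.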

Activity change, positive = activation, inactive:
Cc1cc(C)n(-c2nc3ccccc3nc2N2CCN(c3cccc(C)c3C)CC2)n1 -3.28%
COc1cccc(CNC(=O)C2(c3cccs3)CCOCC2)c1 -8.29%
CCOC(=O)c1c(NC(=O)CSc2cn(CCNC(=O)c3ccccc3OC)c3ccccc23)sc2c1CCC2 -27.6%
CC(C)c1nc2n(n1)C1(CCCCC1)[C@@H]1CCCC[C@@H]1N2 -5.94%
CCOc1ccc(-n2c(CC)nc3c(cnn3-c3ccc(Cl)cc3)c2=O)cc1 -53%
N#CC1(c2ccc(NC(=O)c3cccnc3NCc3ccncc3)cc2)CCCC1 5.83%
COc1ccc(-c2nc3c4ccccc4n(CC(=O)N4CCN(c5ccc(F)cc5)CC4)c(=O)n3n2)cc1 -2.62%
COc1c(Cl)cc(C(=O)N(Cc2ccc(C)o2)C2CCS(=O)(=O)C2)cc1Cl (stereo not given) -23.1%
Cc1cccc(Cn2c(C)c(CNC3CCCCCC3)c(C(=O)O)c2C)c1 -21.7%
Cc1oc(-c2cccc(Cl)c2)nc1CN1CCCC(C(=O)N2CCN(c3ccc(F)cc3)CC2)C1 (stereo not given) -50.6%
O=C(Cn1c(=O)c2ccccc2n(CC(=O)Nc2ccc(F)cc2)c1=O)NCCc1ccccc1 -39.7%
COc1ccccc1N(CC(=O)Nc1ccc(C)c(Cl)c1)S(=O)(=O)c1ccc(C)cc1 -30.7%
CCOc1ccc(CC(=O)NC2CC(=O)N(c3ccc(C)c(C)c3)C2)cc1 (stereo not given) -15.5%
CC1(C)Cc2c(sc(NC(=S)NC(=O)c3ccccc3)c2C(=O)O)CO1 -34%
O=C(C1CCC1)N1CCCc2cc(S(=O)(=O)Nc3ccc(F)cc3)ccc21 -29.4%
C#CC(C)(CC)NC(=O)c1cc2c(n(-c3ccc(Cl)cc3)c1=O)CC(C)(C)CC2=O (stereo not given) -23.9%
COCCn1c(C)cc(O)c(C(c2ccc(C)cc2)N2CCCCC2)c1=O (stereo not given) 4.94%
CC(=O)N1CCc2cc(Br)cc(S(=O)(=O)N3CCN(c4cc(C)ccc4C)CC3)c21 -9.53%
CC(=O)N1c2ccccc2C(=O)C1N1CCN(c2cccc(C(F)(F)F)c2)CC1 (stereo not given) -35.5%
Cc1ccccc1OCC(=O)N(Cc1ccc(N(C)C)cc1)CC1CCCO1 (stereo not given) -24.8%
OCc1nc2ccccc2n1Cc1c(F)cccc1Cl -22.6%
Cn1cc(-c2cc3n(n2)CCC(=O)N3CC(=O)O)c2ccccc21 2.5%
Cc1cccc(CNC(=O)CCCN2C(=O)CCn3nc(-c4cn(C)c5ccccc45)cc32)c1 -22.7%
CCN(CC)c1ccc(NC(=O)c2cc(S(=O)(=O)N3CCc4ccccc43)cn2C)c(C)c1 -11.3%
CCN1CCN(c2c(S(=O)(=O)c3ccccc3)cnc3ccc(Cl)cc23)CC1 -9.43%
Cn1c(=O)n(C/C=C/c2ccccc2)c(=O)c2c1nc1n2CCN1c1ccc(Cl)cc1 -0.314%
COc1ccc(Cn2c(SCc3ccc(C(=O)NCCc4ccccc4)cc3)nc3cccnc32)cc1 -8.72%
CCN(CC)c1nn2c(=O)c(C(=O)NCc3cccc(C)c3)cnc2s1 -14.2%
Cn1nc(-c2ccccc2F)c2cc(C(=O)N3CCN(c4ccc(F)cc4)CC3)sc21 -77.8%
CCOC(=O)c1[nH]c(C)c(CCC(=O)NCc2ccccc2C)c1C -17.7%
CCn1cc(S(=O)(=O)c2ccc(C)cc2)c(=O)c2cc(F)c(N3CCCCCC3)cc21 -2.97%
Cc1ccc(NC(=O)CSc2ncnc3c2sc2ccccc23)cc1C 3.83%
Cc1nn(C(=O)c2cccc(F)c2)c(C)c1S(=O)(=O)N1CCCCCC1 -7.97%
CCC(C)NC(=O)Cn1c(=O)n(Cc2ccc(C(=O)NCc3ccccc3OC)cc2)c(=O)c2ccccc21 (stereo not given) -25.1%
Cc1cccc(N2CCN(S(=O)(=O)c3ccc(F)c(C(=O)Nc4ccc(C(C)C)cc4)c3)CC2)c1C -16.3%
Cc1ccc(C)c(NC(=O)CSc2nc(=O)n(Cc3ccccn3)c3c2CCC3)c1 -11%
NCCc1ccc(O)c(O)c1
COc1ccc(OC)c(Nc2ncnc3c2cnn3-c2ccc(C)cc2)c1 -2.81%
Cc1cc(C)cc(NS(=O)(=O)c2ccc3[nH]cc(C(=O)N4CCCCCC4)c(=O)c3c2)c1 -12.8%
COc1ccc(NC(=O)C(=O)NCCc2ccc(OC)c(OC)c2)c(OC)c1 12.6% [at 11.5 µM, percent change from vehicle, -100% = no light]
COc1ccccc1CNc1nc2ccccc2c2nc(-c3cccnc3)nn12 -3.84%
O=C(COc1ccccc1Cl)OCc1cc(=O)n2nc(C3CC3)sc2n1 -9.59%
COCCCNC(=O)c1cnn(-c2ccccc2Cl)c1C1CCN(C(=O)OC(C)(C)C)CC1 -1.44%
COc1ccc(CNC(=O)C2CCN(C(=O)c3ccc(-n4ccc5ccccc54)s3)CC2)cc1 -9.62%
COc1ccc(CCNC(=O)c2cccc(-n3c(C)nc4cccnc43)c2)cc1OC -8.7%
COC(=O)c1ccc(NC(=O)CSc2cn(CC(=O)N3CCCCCC3)c3ccccc23)cc1 -23.3%
COc1ccc(-c2cc3nc(-c4ccc(Br)cc4)cc(C(F)(F)F)n3n2)cc1 -0.339%
COCCCn1c(=N)c(S(=O)(=O)c2ccccc2)cc2c(=O)n3cc(C)ccc3nc21 5.77%
Cc1ccc(OCC(=O)OCc2cc(=O)n3nc(-c4cccs4)sc3n2)cc1 12.1%
COc1cccc(NC(=O)C2CCCN(c3nnc(-n4c(C)ccc4C)s3)C2)c1 (stereo not given) 12.3%
COc1ccccc1CNC(=O)CCCn1nc(C)c2sc3ccccc3c2c1=O -1%
Cc1ccccc1OCC(=O)Nc1ccc2nc(SCC(=O)N(C)c3ccccc3)sc2c1 -38.6%
CC(C)(C)OC(=O)N1CCC(c2c(C(=O)N3CCN(c4ccc(Cl)cc4)CC3)cnn2-c2ccc(F)cc2F)CC1 -34.6%
COc1ccc(Cl)cc1NC(=O)c1cc2ccc3ccc(C)[nH]c3c2n1 3.25%
Cn1cc(S(=O)(=O)c2ccc(Cl)cc2)c(=O)c2cc(F)c(N3CCCC3)cc21 -19.1%
Cc1nc2sccn2c(=O)c1S(=O)(=O)NCc1ccc(F)cc1 -4.17%
CCc1ccc(NC(=O)CSc2c(C)cnc3c2c(=O)n(C)c(=O)n3C)cc1 -15.2%
Cn1c(=O)c2nc(SCC(=O)Nc3cc(Cl)cc(Cl)c3)n(C)c2n(C)c1=O -8.32%
Cc1ccc(Cn2c(CNS(=O)(=O)c3ccc(C(C)(C)C)cc3)nc3cccnc32)cc1 -33.2%
C[C@H](Cc1ccc(O)c(O)c1)[C@@H](C)Cc1ccc(O)c(O)c1 -49.4%
